From PubChem BioAssay AID1963576 (National Center for Advancing Translational Sciences (NCATS), 2024)
About 60 (0.1%) of roughly 46,000 compounds were called active. About 3% were inconclusive and are not listed. Calls come from the whole dose curve; as a rule, active = well fitted inhibition curve with a large enough effect; inconclusive = small, poorly fitted or top-dose-only effect; inactive = no such curve, though single readings can be large or run the other way. This is one part of the list.

Assay: Primary qHTS assay for Inhibitors of ovarian cancer metastasis using an organotypic tumor microenvironment (TME) model.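 For activity change, negative = inhibition: plate controls were DMSO wells for no effect and tomatine positive control wells for full effect.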 Note: nearly all actives have a fitted effect of over 65% in size.
Settings: SKOV3ip1-GFP adhesion/invasion on 3D omental model, fluorescence; series mostly up to 45.8 µM; activity change, negative = inhibition: at the top concentration
Procedure, shortened: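 Primary human omental fibroblast/mesothelial 3D culture pre-formed 48 h. SKOV3ip1-GFP cells added with compounds (0.36-46 umol/L), incubated 2 h RT/16 h 37 C, fixed; GFP cells quantified at 488/509 nm.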
For `COc1ccc(-c2oc3ncn4nc(COc5ccccc5C)nc4c3c2-c2ccc(OC)cc2)cc1`, the “activity change, negative = inhibition” value was inactive: 1.21%. For `COC(=O)c1ccc(OC)c(Cn2c(=O)n(-c3cccc(Cl)c3)c(=O)c3c4c(sc32)CN(C(C)=O)CC4)c1`, the “activity change, negative = inhibition” value was inactive: 4.95%. With `CCOC(=O)C1CCCN(C(=O)Cn2ncn3c(cc4sc(CC)cc43)c2=O)C1` (stereo not given) the “activity change, negative = inhibition” value was inactive: -3.49%. In the case of `CCC1=Nc2cc(C(=O)NCc3ccc(C)cc3)ccc2Sc2ccc(C)cc21`, the “activity change, negative = inhibition” value is reported as inactive: -23.2%. In the case of `CCCCN(C)CCCNC(=O)c1cc(-c2cccnc2)nc2ccccc12`, the “activity change, negative = inhibition” value is reported as inactive: -13%. In the case of `Cc1cccc(N2CCN(C(=O)C3CCN(S(=O)(=O)c4c(C)noc4C)CC3)CC2)c1C`, the “outcome” value is reported as “inactive”. For `O=C(CN1C(=O)COc2ccc(S(=O)(=O)N3CCCCCC3)cc21)N1CCN(c2cccc(C(F)(F)F)c2)CC1`, the “activity change, negative = inhibition” value was inactive: 1.31%. In the case of `COc1ccc2c(CNCCc3cccs3)c(C(=O)O)n(Cc3ccccc3C)c2c1`, the “activity change, negative = inhibition” value is reported as inactive: -7.1%. For `COc1ccc2oc(=O)c(-c3cn4c(n3)sc3cc(F)ccc34)cc2c1`, the “activity change, negative = inhibition” value was inactive: -9.77%. With `Cc1cccc(C)c1OCC(=O)Nc1c(C(=O)c2ccc(Br)cc2)oc2ccccc12` the “activity change, negative = inhibition” value was inactive: 24.8%. With `CCC(C)NC(=O)c1[nH]c2cc(C)ccc2c1Sc1ccc(Cl)cc1` (stereo not given) the “activity change, negative = inhibition” value was inactive: 4.95%. For `CCOc1cc2[nH]c(=O)n(CCCCC(=O)N3CCN(c4ccccc4)CC3)c(=O)c2cc1OCC`, the “activity change, negative = inhibition” value was inactive: 6.34%. With `COc1ccc(CCNC(=O)CCc2cn(Cc3ccc(C)cc3)c3ccccc23)c(OC)c1OC` the “outcome” value was “inactive”. For `COc1ccc(-c2noc(N3CCC(C(=O)N(C)c4cc(Cl)ccc4OC)CC3)n2)cc1`, the “activity change, negative = inhibition” value was inactive: -6.78%. With `CCCCOc1ccc(S(=O)(=O)NCc2csc(-c3ccc(OC)cc3)n2)cc1` the “activity change, negative = inhibition” value was inactive: -5.84%. For `CCCn1c2ccccc2c2cnn(CC(=O)N(Cc3ccccc3)C(C)C)c(=O)c21`, the “activity change, negative = inhibition” value was inactive: 3.55%. In the case of `NC(=O)Nc1sc(-c2ccc(F)cc2)cc1C(N)=O`, the “activity change, negative = inhibition” value is reported as inactive: -4.81%. With `CCCOc1ccc(-c2nc(N3CCC(C)CC3)c3ccccc3n2)cc1` the “outcome” value was “inactive”. With `COc1ccc(-n2ccn(CC(=O)NCc3ccc(C)cc3)c(=O)c2=O)cc1OC` the “activity change, negative = inhibition” value was inactive: 3.68%. For `Cc1cc(F)ccc1NC(=O)c1ccc2nc(Cc3ccccc3)oc2c1`, the “activity change, negative = inhibition” value was inactive: -5.59%. In the case of `Cc1ccc(S(=O)(=O)NCCc2nnc3ccc(SCc4ccc(F)cc4)nn23)cc1`, the “activity change, negative = inhibition” value is reported as inactive: -8.51%. With `Cc1c(C(=O)N2CCCC2)oc2c1-c1nn(CC(=O)NC(C)c3ccccc3)cc1CC2` (stereo not given) the “outcome” value was “inactive”. With `CCC(C(=O)Nc1cc(OC)ccc1OC)n1c(C)c2cnn(-c3ccccc3)c(=O)c2c1C` (stereo not given) the “activity change, negative = inhibition” value was inactive: 28.7%. For `COc1ccc(CC(=O)NCC(c2cccs2)S(=O)(=O)c2ccc(Cl)cc2)cc1` (stereo not given), the “outcome” value was “inactive”. With `COc1ccccc1C(=O)c1cn(CC(=O)Nc2ccccc2F)c2nc(C)ccc2c1=O` the “activity change, negative = inhibition” value was inactive: -22.1%. With `Cc1ccc(C)c(N2CCN(C(=O)c3cc(S(=O)(=O)N4CCC(C)CC4)cn3C)CC2)c1` the “activity change, negative = inhibition” value was inactive: 6.89%. For `Cc1ccc(Nc2ncc(C(=O)N3CCN(c4cccc(Cl)c4)CC3)c3ccccc23)cc1Cl`, the “activity change, negative = inhibition” value was inactive: 0.153%. With `Cc1ccc2oc(C(=O)Nc3cccc(-c4nc5ccccc5s4)c3)c(C)c2c1` the “outcome” value was “inactive”. With `COc1ccccc1Cn1cc(C(=O)c2ccc(F)cc2)c(=O)c2cc3c(cc21)OCO3` the “activity change, negative = inhibition” value was inactive: 0.355%. For `Cc1sc2ncn(CC(=O)N3CCN(c4ccc(Cl)cc4)CC3)c(=O)c2c1S(=O)(=O)N1CCN(c2ncccn2)CC1`, the “outcome” value was “inactive”. With `COC(=O)c1c(C)oc2ccc(N(C(=O)c3ccncc3)S(=O)(=O)c3c(C)cc(C)cc3C)cc12` the “activity change, negative = inhibition” value was inactive: -3.54%. In the case of `CC(C)(C)c1ccc(C(=O)NC2(C(F)(F)F)C(=O)Nc3c2c(=O)[nH]c(=O)n3-c2ccccc2)cc1` (stereo not given), the “activity change, negative = inhibition” value is reported as inactive: 5.37%. In the case of `Cc1cccn2c(=O)c3cc(C(=O)NCc4cccnc4)c(=N)n(CCCO)c3nc12`, the “activity change, negative = inhibition” value is reported as inactive: -3.78%. In the case of `CC1=Nc2cc(C(=O)NCCc3ccccc3)ccc2Sc2c(C)ccc(C)c21`, the “activity change, negative = inhibition” value is reported as inactive: 1.89%. In the case of `Cc1ccc(Cn2c(SCC(=O)C(C)(C)C)nc3ccsc3c2=O)cc1`, the “outcome” value is reported as “inactive”. For `COc1ccc(C)cc1NC(=O)c1ccc(=O)n(Cc2ccccc2)c1`, the “activity change, negative = inhibition” value was inactive: 9.51%. For `CC(C)CCNC(=O)C1CCN(c2nc3ccc(Cl)cc3[nH]2)CC1`, the “activity change, negative = inhibition” value was inactive: -4.34%. For `CCOC(=O)c1cc2c(=O)n3ccccc3nc2n(Cc2ccco2)c1=NC(=O)c1c(F)cccc1Cl`, the “activity change, negative = inhibition” value was inactive: -16%. With `CCOC(=O)c1c(C)[nH]c(C)c1S(=O)(=O)N(C)CC(=O)Nc1ccc(C)c(N(C)C)c1` the “outcome” value was “inactive”. With `O=C(Nc1ccc2nc(SCC(=O)N3CCCC3)sc2c1)c1cccc(Cl)c1` the “activity change, negative = inhibition” value was inactive: -7.35%. For `COc1ccc(NC(=O)Cn2c(=O)n(-c3ccc(C)cc3)c(=O)c3c2cnn3C)cc1`, the “activity change, negative = inhibition” value was inactive: 4.18%. For `COC(=O)c1cc2occc2n1Cc1nc(-c2cccc(Cl)c2)oc1C`, the “activity change, negative = inhibition” value was inactive: -3.45%. In the case of `COc1ccc(CCNC(=O)c2cn(C)c3ccc(S(=O)(=O)N(C)C4CCCCC4)cc3c2=O)cc1OC`, the “activity change, negative = inhibition” value is reported as inactive: -2.77%. In the case of `CC(=O)Nc1ccc(S(=O)(=O)Nc2cc(-c3cn4ccccc4n3)ccc2C)cc1`, the “activity change, negative = inhibition” value is reported as inactive: 1.04%. With `Cc1cccc(C(=O)Nc2c(C(=O)NCc3ccc(Cl)cc3)sc3nc(C)cc(C)c23)c1` the “activity change, negative = inhibition” value was inactive: -1.39%.
